Source: ChEMBL document CHEMBL5606458, “ASAP - ZIKV NS2B-NS3 protease fluorescence single point” (2024)
The campaign covered roughly 2,700 compounds. About 160 (5.9%) showed an effect of 50% or more. The list shows a part of the results.

Target: Nonstructural protein 3 (Zika virus) (UniProt A0A024AXB9)
[1] = PRVABC59, Concentration 15.0 uM, Number of replicates 1.0
[2] = PRVABC59, Concentration 50.0 uM, Number of replicates 1.0
[3] = PRVABC59, Concentration 10.0 uM, Number of replicates 1.0

Sequence of UniProt A0A024AXB9 (A0A024AXB9 as listed by the source): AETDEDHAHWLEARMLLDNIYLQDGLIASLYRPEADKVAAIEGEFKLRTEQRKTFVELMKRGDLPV

CC1(C)C[C@@](C)(CNC(=O)c2cnc[nH]2)CN1C(=O)c1ccc2[nH]nnc2c1
inhibition (PRVABC59, Concentration 49.5 uM, Number of replicates 2.0, Standard deviation 0.9249152326521356 %): -0.603% | inhibition (PRVABC59, Concentration 99.01 uM, Number of replicates 2.0, Standard deviation 0.34716713151950906 %): -1.69% | inhibition (PRVABC59, Concentration 198.0 uM, Number of replicates 2.0, Standard deviation 1.5233898947453204 %): -1.29%

O=C(Nc1ccc(-c2ccccc2)cc1)c1cc(Cl)ccc1NS(=O)(=O)c1ccc(Oc2ccccc2Cl)cc1
inhibition [1]: 26.5%

NCc1cccc(NC(=O)[C@H]2CCN(C(=O)OCc3ccccc3)C2)c1
inhibition (PRVABC59, Concentration 49.5 uM, Number of replicates 2.0, Standard deviation 1.014906480267062 %): 2.12% | inhibition (PRVABC59, Concentration 99.01 uM, Number of replicates 2.0, Standard deviation 0.22285769923493182 %): 5.37% | inhibition (PRVABC59, Concentration 198.0 uM, Number of replicates 2.0, Standard deviation 1.2136714393129233 %): 9.25%

O=Cc1ccc(N2CCC(C(=O)N(Cc3ccncc3)C[C@H]3CCCO3)CC2)cc1
inhibition [2]: 23.5%

COc1cc(Cc2cccc(OC)c2F)nc(N2CCNCC2)n1
inhibition (PRVABC59, Concentration 49.5 uM, Number of replicates 2.0, Standard deviation 2.6153211736588906 %): 2.32% | inhibition (PRVABC59, Concentration 99.01 uM, Number of replicates 2.0, Standard deviation 4.59725938145552 %): 6.62% | inhibition (PRVABC59, Concentration 198.0 uM, Number of replicates 2.0, Standard deviation 0.3899203888867778 %): 8.41%

Cc1ccc(OC2CCN(C(=O)c3cc(Cl)ccc3NS(=O)(=O)c3ccc(Oc4ccccc4Cl)cc3)CC2)cc1
inhibition [1]: 5.2%

Cc1nn(Cc2nnc(C(C)C)o2)cc1C1CCNCC1
inhibition (PRVABC59, Concentration 49.5 uM, Number of replicates 2.0, Standard deviation 0.5353450551005249 %): -1.98% | inhibition (PRVABC59, Concentration 99.01 uM, Number of replicates 2.0, Standard deviation 0.17229496801338245 %): -2.26% | inhibition (PRVABC59, Concentration 198.0 uM, Number of replicates 2.0, Standard deviation 0.7076400231139074 %): -2.46%

CN(Cc1nc2ccccc2[nH]1)C(=O)c1cc2c(ccn2C)[nH]1
inhibition (PRVABC59, Concentration 49.5 uM, Number of replicates 2.0, Standard deviation 5.172537563995753 %): -3.17% | inhibition (PRVABC59, Concentration 99.01 uM, Number of replicates 2.0, Standard deviation 6.695691457462837 %): -1.36% | inhibition (PRVABC59, Concentration 198.0 uM, Number of replicates 2.0, Standard deviation 6.467604851614249 %): 0.123%

O=Cc1ccc(N2CCC(C(=O)Nc3cnc(Br)cn3)CC2)cc1
inhibition [2]: 18.7%

CN(C)C[C@H](O)CN1CCN(C(=O)C2CCN(c3ccc(C=O)cc3)CC2)CC1
inhibition [2]: 19.1%

NC(=O)[C@H](Cc1ccc(O)cc1)NC(=O)C1CCN(c2ccc(C=O)cc2)CC1
inhibition [2]: 27%

OB(O)c1cccc(-c2noc(Cn3cnc4c3CCCC4)n2)c1
inhibition (PRVABC59, Concentration 49.5 uM, Number of replicates 2.0, Standard deviation 0.8580649914349869 %): -2.62% | inhibition (PRVABC59, Concentration 99.01 uM, Number of replicates 2.0, Standard deviation 0.7538714070076892 %): -1.76% | inhibition (PRVABC59, Concentration 198.0 uM, Number of replicates 2.0, Standard deviation 0.6108605013448731 %): 0.25%

O=Cc1ccc(N2CCC(C(=O)Nc3cccc(C(F)(F)F)c3F)CC2)cc1
inhibition [2]: 22.2%

CCN(CCNC(=O)c1cc(Cl)ccc1NS(=O)(=O)c1ccc(Oc2ccccc2Cl)cc1)c1cccc(C)c1
inhibition [1]: 15.1%

O=Cc1ccc(N2CCC(C(=O)NCCc3c(F)cccc3Cl)CC2)cc1
inhibition [2]: 16.4%

COc1cc(CCNC(=O)c2cc(Cl)ccc2NS(=O)(=O)c2ccc(Oc3ccccc3Cl)cc2)cc(OC)c1O
inhibition [1]: 29.1%

C[C@H](NC(=O)c1cc(Cl)ccc1NS(=O)(=O)c1ccc(Oc2ccccc2Cl)cc1)c1ccc2c(c1)OCCCO2
inhibition [1]: 29.3%

Cn1cc(NC(=O)c2ccccc2C(F)(F)F)c(-c2cnn(C)n2)n1
inhibition (PRVABC59, Concentration 49.5 uM, Number of replicates 2.0, Standard deviation 3.8222474524095547 %): 0.532% | inhibition (PRVABC59, Concentration 99.01 uM, Number of replicates 2.0, Standard deviation 1.4785352165847228 %): -0.82% | inhibition (PRVABC59, Concentration 198.0 uM, Number of replicates 2.0, Standard deviation 0.9946836637082618 %): -2.64%

Cc1cc(Cl)c2cccc(NC(=O)CCN)c2n1
inhibition (PRVABC59, Concentration 49.95 uM, Number of replicates 2.0, Standard deviation 0.2024559271573544 %): 95.1% | inhibition (PRVABC59, Concentration 99.9 uM, Number of replicates 2.0, Standard deviation 0.15816464699422608 %): 91.2%

O=C(O)c1cccc(NC(=O)c2cccnc2)c1
inhibition (PRVABC59, Concentration 49.5 uM, Number of replicates 2.0, Standard deviation 0.6620888840867353 %): -0.418% | inhibition (PRVABC59, Concentration 99.01 uM, Number of replicates 2.0, Standard deviation 1.469463697498632 %): 2.14% | inhibition (PRVABC59, Concentration 198.0 uM, Number of replicates 2.0, Standard deviation 1.8949438882362333 %): 5.49%

Cc1cc(C)nc(CCNC(=O)c2cc(Cl)ccc2NS(=O)(=O)c2ccc(Oc3ccccc3Cl)cc2)n1
inhibition [1]: 7.5%

COc1cc2nc(Cl)nc(NC(=O)C3CCN(c4ccc(C=O)cc4)CC3)c2cc1OC
inhibition [2]: 24.4%

Cc1ccc(CN(C(=O)C2CCN(c3ccc(C=O)cc3)CC2)C2CC2)s1
inhibition [2]: 27.6%

CCCCCCCCCCNC(=O)C1CCN(c2ccc(C=O)cc2)CC1
inhibition [2]: 22.7%

NC(=O)c1sccc1NS(=O)(=O)c1ccc(Oc2ccccc2)cc1
inhibition (PRVABC59, Concentration 49.5 uM, Number of replicates 2.0, Standard deviation 0.4763028837207658 %): 3.73% | inhibition (PRVABC59, Concentration 99.01 uM, Number of replicates 2.0, Standard deviation 0.39278030543933307 %): 8.2% | inhibition (PRVABC59, Concentration 198.0 uM, Number of replicates 2.0, Standard deviation 0.5485388731457692 %): 15.3%

O=C(c1cc(Cl)ccc1NS(=O)(=O)c1ccc(Oc2ccccc2Cl)cc1)N1CCN(CCOCCO)CC1
inhibition [1]: -0.703%

Cc1noc([C@@H]2CCCCN2C(=O)c2cc(Cl)ccc2NS(=O)(=O)c2ccc(Oc3ccccc3Cl)cc2)n1
inhibition [1]: 20.8%

O=Cc1ccc(N2CCC(C(=O)NCCSc3ccc(Cl)cc3)CC2)cc1
inhibition [2]: -3.35%

O=Cc1ccc(N2CCC(C(=O)NCc3ccc(I)cc3)CC2)cc1
inhibition [3]: 19.4%

O=C(Nc1cccc(O)c1)c1cccc(OCc2c(Cl)cccc2Cl)c1
inhibition (PRVABC59, Concentration 49.5 uM, Number of replicates 2.0, Standard deviation 2.5164150167444057 %): 9.1% | inhibition (PRVABC59, Concentration 99.01 uM, Number of replicates 2.0, Standard deviation 0.35948766686360767 %): 9.02% | inhibition (PRVABC59, Concentration 198.0 uM, Number of replicates 2.0, Standard deviation 1.1241130951499425 %): 12.5%

C[C@H](NC(=O)C1CCN(c2ccc(C=O)cc2)CC1)c1cc(F)ccc1F
inhibition [3]: 20.5%

O=C(CNC(=O)c1cc(Cl)ccc1NS(=O)(=O)c1ccc(Oc2ccccc2Cl)cc1)c1ccc(O)cc1
inhibition [1]: 52.2%

C#CCN(C(=O)c1cc(Cl)ccc1NS(=O)(=O)c1ccc(Oc2ccccc2Cl)cc1)[C@@H](C)Cc1ccccc1
inhibition [1]: 25.7%

COc1cc(COc2cc(C)nc3ncnn23)nc(N2CCNCC2)n1
inhibition (PRVABC59, Concentration 49.5 uM, Number of replicates 2.0, Standard deviation 2.68247440066745 %): 1.51% | inhibition (PRVABC59, Concentration 99.01 uM, Number of replicates 2.0, Standard deviation 1.6078501771858478 %): 0.374% | inhibition (PRVABC59, Concentration 198.0 uM, Number of replicates 2.0, Standard deviation 1.0644090707345926 %): 1.09%

Cc1cc(CO)c2cccc(NC(=O)CCC3CCNCC3)c2n1
inhibition (PRVABC59, Concentration 49.95 uM, Number of replicates 2.0, Standard deviation 0.05519955890732387 %): 98.6% | inhibition (PRVABC59, Concentration 99.9 uM, Number of replicates 2.0, Standard deviation 0.045159842417240824 %): 96.7%

O=C(c1cc(Cl)ccc1NS(=O)(=O)c1ccc(Oc2ccccc2Cl)cc1)N1CCN(Cc2cccc3ccccc23)CC1
inhibition [1]: 10.7%

CN(C)CCCN(CCCN(C)C)C(=O)C1CCN(c2ccc(C=O)cc2)CC1
inhibition [2]: 23.2%

O=Cc1ccc(N2CCC(C(=O)N3CCC(Oc4cnccn4)CC3)CC2)cc1
inhibition [2]: 27.3%

O=C(Nc1ccc(Cl)nc1Cl)c1cc(Cl)ccc1NS(=O)(=O)c1ccc(Oc2ccccc2Cl)cc1
inhibition [1]: 23.5%

NCCOc1ccc2c(c1)B(O)OC2
inhibition (PRVABC59, Concentration 49.5 uM, Number of replicates 2.0, Standard deviation 5.911654033689354 %): -3.39% | inhibition (PRVABC59, Concentration 99.01 uM, Number of replicates 2.0, Standard deviation 4.227955018150725 %): -2.53% | inhibition (PRVABC59, Concentration 198.0 uM, Number of replicates 2.0, Standard deviation 3.769614855213321 %): -2.7% | inhibition (PRVABC59, Concentration 500.0 uM, Number of replicates 2.0, Standard deviation 0.5748218164645568 %): -3.15%

O=Cc1ccc(N2CCC(C(=O)NCC(=O)c3ccccc3F)CC2)cc1
inhibition [2]: 13.6%

Cc1cc(CO)c2cccc(NC(=O)C[C@H]3CCCN3)c2n1
inhibition (PRVABC59, Concentration 49.95 uM, Number of replicates 2.0, Standard deviation 2.649580260544395 %): 3.54% | inhibition (PRVABC59, Concentration 99.9 uM, Number of replicates 2.0, Standard deviation 2.639543831508496 %): 13.9%

O=Cc1ccc(N2CCC(C(=O)Nc3cc(C(F)(F)F)ccc3N3CCCC3)CC2)cc1
inhibition [2]: -4.32%

CN(C)Cc1cc(C(=O)Nc2cc(Cl)cc(C(=O)NC(C)(C)CO)c2)ccn1
inhibition (PRVABC59, Concentration 49.5 uM, Number of replicates 2.0, Standard deviation 0.7343048168802037 %): 3.54% | inhibition (PRVABC59, Concentration 99.01 uM, Number of replicates 2.0, Standard deviation 0.19075528766115404 %): 7.41% | inhibition (PRVABC59, Concentration 198.0 uM, Number of replicates 2.0, Standard deviation 0.5886748112205115 %): 14.7%
